# Data as given in the supplement of paper PMC8728848.
# The list shows a part of the results.
# Experiments:
# Assay in all cases: glycan array binding signal (z-score within array); higher = stronger binding
# Settings in all cases: glycan notation: IUPAC condensed, linker removed
# [1] = target: Neu5Ac(a2-6)GlcNAc(b1-4)GlcNAc
# Outline: (§1)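 From the Consortium for Functional Glycomics database, 3228 arrays were curated, keeping only those whose protein sequence was available. Binding is given as a within-array Z-score averaged across arrays sharing a protein sequence and across linkers. Negative Z-scores can be read as non-binding.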
# [2] = target: Neu5Ac(a2-6)GlcNAc(b1-4)GlcNAc(b1-4)GlcNAc
# Outline: as §1
# [3] = target: Neu5Ac(a2-8)Neu5Ac
# Outline: as §1
# [4] = target: Neu5Ac(a2-8)Neu5Ac(a2-3)Gal(b1-3)GalNAc(b1-4)[Neu5Ac(a2-3)]Gal(b1-4)Glc
# Outline: as §1
# [5] = target: Neu5Ac(a2-8)Neu5Ac(a2-3)Gal(b1-3)GalNAc(b1-4)[Neu5Ac(a2-8)Neu5Ac(a2-3)]Gal(b1-4)Glc
# Outline: as §1
# [6] = target: Neu5Ac(a2-8)Neu5Ac(a2-3)Gal(b1-4)Glc
# Outline: as §1
# [7] = target: Neu5Ac(a2-8)Neu5Ac(a2-3)Gal(b1-4)GlcNAc
# Outline: as §1
# [8] = target: Neu5Ac(a2-8)Neu5Ac(a2-3)[Gal(b1-3)GalNAc(b1-4)]Gal(b1-4)Glc
# Outline: as §1
# [9] = target: Neu5Ac(a2-8)Neu5Ac(a2-3)[GalNAc(b1-4)]Gal(b1-4)Glc
# Outline: as §1
# [10] = target: Neu5Ac(a2-8)Neu5Ac(a2-8)Neu5Ac
# Outline: as §1
# [11] = target: Neu5Ac(a2-8)Neu5Ac(a2-8)Neu5Ac(a2-3)Gal(b1-4)Glc
# Outline: as §1
# [12] = target: Neu5Ac(a2-8)Neu5Ac(a2-8)Neu5Ac(a2-3)[Gal(b1-3)GalNAc(b1-4)]Gal(b1-4)Glc
# Outline: as §1
# [13] = target: Neu5Ac(a2-8)Neu5Ac(a2-8)Neu5Ac(a2-3)[GalNAc(b1-4)]Gal(b1-4)Glc
# Outline: as §1
# [14] = target: Neu5Ac(a2-8)Neu5Ac(a2-8)Neu5Ac(a2-8)Neu5Ac(a2-3)[GalNAc(b1-4)]Gal(b1-4)Glc
# Outline: as §1
# [15] = target: Neu5Ac(a2-8)Neu5Gc(a2-3)Gal(b1-4)GlcNAc
# Outline: as §1
# [16] = target: Neu5Ac(b2-6)Gal(b1-4)GlcNAc
# Outline: as §1
# [17] = target: Neu5Ac(b2-6)GalNAc
# Outline: as §1
# [18] = target: Neu5Ac9Ac(a2-3)Gal(b1-3)GlcNAc
# Outline: as §1
# [19] = target: Neu5Ac9Ac(a2-3)Gal(b1-4)GlcNAc
# Outline: as §1
# [20] = target: Neu5Ac9Ac(a2-6)Gal(b1-4)GlcNAc
# Outline: as §1
# [21] = target: Neu5Gc(a2-3)Gal(b1-3)GlcNAc
# Outline: as §1
# [22] = target: Neu5Gc(a2-3)Gal(b1-3)[Fuc(a1-4)]GlcNAc
# Outline: as §1
# [23] = target: Neu5Gc(a2-3)Gal(b1-4)Glc
# Outline: as §1
# [24] = target: Neu5Gc(a2-3)Gal(b1-4)GlcNAc
# Outline: as §1
# [25] = target: Neu5Gc(a2-3)Gal(b1-4)GlcNAc(b1-3)Gal(b1-4)GlcNAc(b1-2)Man(a1-3)[Neu5Gc(a2-3)Gal(b1-4)GlcNAc(b1-3)Gal(b1-4)GlcNAc(b1-2)Man(a1-6)]Man(b1-4)GlcNAc(b1-4)GlcNAc
# Outline: as §1
# [26] = target: Neu5Gc(a2-3)Gal(b1-4)[Fuc(a1-3)]GlcNAc
# Outline: as §1
# [27] = target: Neu5Gc(a2-6)Gal(b1-4)GlcNAc
# Outline: as §1
# [28] = target: Neu5Gc(a2-6)GalNAc
# Outline: as §1
# [29] = target: Neu5Gc(a2-8)Neu5Ac(a2-3)Gal(b1-4)GlcNAc
# Outline: as §1
# [30] = target: Neu5Gc(a2-8)Neu5Gc(a2-3)Gal(b1-4)GlcNAc
# Outline: as §1
# [31] = target: Neu5Gc(a2-8)Neu5Gc(a2-3)Gal(b1-4)GlcNAc(b1-3)Gal(b1-4)GlcNAc
# Outline: as §1
# [32] = target: Neu5Gc(a2-8)Neu5Gc(a2-6)Gal(b1-4)GlcNAc
# Outline: as §1
# [33] = target: Neu5Gc(b2-6)Gal(b1-4)GlcNAc
# Outline: as §1
binder,measurement,setting,value
"CC1G-10077 (Coprinopsis cinerea), A8NDT7 (protein) MALNEGVYWIRNSRFTNKVLDLDAANVAKGTSILDFNEHGTFNENHNQLWIVERFQSRDTYLIRSVHSNLVLDLSQGLSANGTPILCWTQHGGTNQQWRIEWVKDDNKTPLYRIVSVATGTAISHNEDDSSAYTVAWSVDDGPKQLWSFDPFVTPLLYRLRVKSTSRVLDLAAASADNGTLALAWEQHTAITKRNQLWWLPYRSGAEEYTIQCLETSTVADLSGGNSGNGTPIYGWQSHGGRNQQWKFEPTSDSGDYYHIKNVEGGSVMDAYMNDSQKRVGGWSNNGGDNQKWLLDPLPSPGPGWVLIQNGGTGKFLCSTPSGDIGTADGPETVYDYSVQWRFIQREYTGVYHVVNRATGAYLRQIGTSMPSIGLAEENDDELKDWWMLETYDNSEIGLASIISRWTGNVLDHYGGVSVQALDNNTENSYRSWAIIPARDWLTSFSLVNGQGGLCLAAQYAREETRLSTTANVNDFHAQWVFRKPSGSSGYTIQNKYNNHYVGGTSARWELVVCCNKYFGIRNTSTQKYLAIEDGQVTFQDQDMTDRKQCWELCSGRATDTSGNDYDLIYMDDDLLEVMIPWVGDKQGDLKHYIEKRATKKPPKDKGGWQLPAAGLIKKPKFNDIRQLLQELIEQWEWDVVNEEREQIQTLVSIDEAEARRLLGRRPHPDIVAAYQRSRSSTLFRIDRQGYFNIAGDRYVNIQGQYGDDSYFHIALPVGVRFGREQIRRFLRDSLDRSTSVTITPTTCKPPSGGPDYNRDPDSDGDNSWIKWTIAVVGTSAIKHSEL",glycan array binding signal (z-score),[1],-0.431
same,glycan array binding signal (z-score),[2],-0.454
same,glycan array binding signal (z-score),[3],-0.507
same,glycan array binding signal (z-score),[4],-0.428
same,glycan array binding signal (z-score),[5],1.02
same,glycan array binding signal (z-score),[6],-0.471
same,glycan array binding signal (z-score),[7],-0.472
same,glycan array binding signal (z-score),[8],-0.337
same,glycan array binding signal (z-score),[9],-0.233
same,glycan array binding signal (z-score),[10],-0.448
same,glycan array binding signal (z-score),[11],-0.534
same,glycan array binding signal (z-score),[12],-0.44
same,glycan array binding signal (z-score),[13],-0.29
same,glycan array binding signal (z-score),[14],-0.332
same,glycan array binding signal (z-score),[15],-0.505
same,glycan array binding signal (z-score),[16],-0.421
same,glycan array binding signal (z-score),[17],-0.454
same,glycan array binding signal (z-score),[18],-0.477
same,glycan array binding signal (z-score),[19],-0.398
same,glycan array binding signal (z-score),[20],-0.434
same,glycan array binding signal (z-score),[21],-0.493
same,glycan array binding signal (z-score),[22],-0.458
same,glycan array binding signal (z-score),[23],-0.46
same,glycan array binding signal (z-score),[24],-0.49
same,glycan array binding signal (z-score),[25],-0.432
same,glycan array binding signal (z-score),[26],-0.475
same,glycan array binding signal (z-score),[27],-0.475
same,glycan array binding signal (z-score),[28],-0.485
same,glycan array binding signal (z-score),[29],-0.458
same,glycan array binding signal (z-score),[30],-0.434
same,glycan array binding signal (z-score),[31],-0.473
same,glycan array binding signal (z-score),[32],-0.424
same,glycan array binding signal (z-score),[33],-0.451
